# Laboratory results taken from PubChem BioAssay (NCATS).
# Several values for one entry are separate records, joined by “and”; a condition that tells them apart may be missing. Equal values may be shown once. The inconclusive results got no clear call from the source; some entries with a clear call stand among them for comparison. For some assays here: Potencies beside an inconclusive call are fits to weak or partial responses and may not hold up. For some assays here: A note “side channel” means that the fit belongs to a control or component signal, not to the main read-out. Activity calls are given as the source filed them. Unless noted, the call rests on the fitted dose curve; in most records, active means well fitted curve in the direction sought with a large enough effect; inconclusive means small, poorly fitted or top-dose-only effect, or another doubt; inactive means no such curve, though single readings can be large; an effect the other way counts as inactive or inconclusive.
# How the values were obtained:
# [1] = biological target: 3',5'-cyclic-AMP phosphodiesterase 4B (Homo sapiens) (UniProt Q07343); assay: qHTS Assay for Inhibitors of PDE-IV (AID 607; active means well fitted activation curve with a large enough effect in the main read-out, with a control signal flat, not every such curve was filed as active; inconclusive means small, poorly fitted or top-dose-only effect, or effect the other way, or a change in a side signal); conditions: HEK293 ACTOne CNG channel cells, membrane potential fluorescence; series mostly up to 22.9 µM
# Outline: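 Cell-based read-out of cAMP via a modified cyclic nucleotide-gated channel and membrane potential dye (535/590 nm) in HEK293 cells expressing PDE4 endogenously. Compounds tested up to 22.9 uM final; 100 uM RO 20-1724 reference.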
# [2] = ZIKV-mCherry secondary qHTS for Zika virus inhibitors (AID 1347158); conditions: Vero cells, ZIKV-mCherry infection imaging, 48-72 h; series mostly up to 49.2 µM
# Outline: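 Vero, 5,000 cells/well, o/n 37 °C; cpd pin-transferred in DMSO; ZIKV-mCherry MOI 1, 48-72 h 37 °C; 32% PFA stock fix, Hoechst; imaged 10x DAPI/mCherry; mCherry+ threshold 450 RFU; % infection.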
# [3] = tested on: Zika virus NS2B-NS3 protease (linked); assay: 384 well plate NINDS AMC confirmatory qHTS for Zika virus inhibitors (AID 1347163); conditions: Recombinant NS2B-NS3 protease, Ac-VKTGKR-AMC fluorescence; series mostly up to 100 µM; further: nearly all actives have a fitted effect of over 50% in size
# Outline: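 Linked NS2B-NS3 protease (final 5 nM, 30 nM or 60 nM) was preincubated with compounds (final up to 1 mM) for ~15 minutes. Ac-VKTGKR-AMC substrate (final 30 microM) then reacted for 25 minutes at room temperature in the dark. Fluorescence (ex 355/em 460 nm) was normalized to no-enzyme and no-inhibitor controls.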
# [4] = Vero cells viability qHTS for Zika virus inhibitors (AID 1347167); conditions: cytotoxicity counter-screen (Zika); series mostly up to 45.9 µM
# Outline: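 Counter-screen for cytotoxicity of hits from NS2B-NS3 protease qHTS. Overnight-attached cells (2.5 x 10^5 cells/mL, DMEM/4% FBS) were dosed in titration, incubated 24 to 48 hours, then assayed by CellTiter Glo.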
# [5] = qHTS Assay for Identification of Small Molecule Antagonists for NFkB Signaling Pathway (AID 895; active means well fitted inhibition curve with a large enough effect in the signal ratio, with a control signal flat, not every such curve was filed as active; inconclusive means small, poorly fitted or top-dose-only effect, or effect the other way, or a change in a side signal; the % refers to the signal ratio); conditions: NFkB beta-lactamase reporter cells, FRET ratio 460/530, stimulated with 10 pM TNF alpha; activity change, negative = inhibition: at 38.3 µM (top of the series)
# Outline: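 NFkB-bla ME-180 cervical carcinoma cells with beta-lactamase reporter under NFkB response element; compounds added, then TNF alpha at 10 pM final (EC50), 5 h at 37 C. LiveBLAzer substrate 2 h, room temperature; emission 460/530 nm at 405 nm excitation.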
# [6] = qHTS Assay for Identification of Small Molecule Antagonists for Thrombopoietin (TPO) Signaling Pathway (AID 918); conditions: TPO-dependent cell signaling reporter, antagonist mode; activity change, negative = inhibition: at 38.5 µM (top of the series); further: nearly all actives have a fitted effect of over 60% in size
# Outline: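 Ba/F3 (murine, hTPO-R, GPIIb-luc reporter); overnight IL-3 withdrawal; cpd + TPO 26 pM final (EC50); 24 h 37 C/5% CO2; Steadylite luminescence after 10 min RT.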
# [7] = High Content Imaging Cell-Based qHTS for Inhibitors of the mTORC1 Signaling Pathway in MEF Cells (AID 2667); conditions: series mostly up to 38.3 µM
# Outline: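 MEF (Tsc2-/-, p53-/-, WT Tsc2 re-expressed); cpd 24 h, 37 °C; PFA fix; Alexa-488 anti-p-rpS6 Ser235/236, PI, Hoechst; IN Cell imaging; Hoechst/Alexa-488 intensity ratio; % active cells, thresholds set from rapamycin and DMSO wells.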
# [8] = Cytometry Cell-Based qHTS for Inhibitors of the mTORC1 Signaling Pathway in MEF cells (AID 2668); conditions: mTORC1 pathway readout; series mostly up to 38.3 µM
# Outline: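 MEFs (Tsc2-/-, p53-/- stably expressing WT Tsc2) treated 24 h at 37 degree Celsius, fixed, stained with Alexa-488 anti-phospho-rpS6 Ser235/236 and propidium iodide; Acumen laser scanning. Reported as % positive cells, phospho-S6 normalized to PI.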
# [9] = biological target: Chromobox protein homolog 1 (Homo sapiens) (UniProt P83916); assay: qHTS Validation Assay for Inhibitors of HP1-beta Chromodomain Interactions with Methylated Histone Tails (AID 488953); conditions: HP1-beta chromodomain / methylated histone peptide binding assay; series mostly up to 114 µM; further: nearly all actives have a fitted effect of over 50% in size
# Outline: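 50 nM HP1-beta + 50 nM biotin-H3(1-18)K9me3, PBS pH 7.4, 0.01% Tween-20, 30 min RT; compound added, 30 min RT; AlphaScreen beads 10 ug/mL final, 30 min dark; luminescence read.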
# [10] = biological target: Ubiquitin carboxyl-terminal hydrolase 1 (Homo sapiens) (UniProt O94782); assay: Inhibitors of USP1/UAF1: Pilot qHTS (AID 504865); conditions: purified USP1/UAF1, Ub-rhodamine cleavage fluorescence; series mostly up to 114 µM;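 further: rhodamine fluorescence freed from ubiquitin-rhodamine substrate followed over time; nearly all actives have a fitted effect of over 35% in size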
# Outline: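 USP1/UAF1 complex at 1 nM preincubated 15 min at room temperature with compound, then Ub-Rho substrate added at 150 nM final. Fluorescence (480/540 nm) read kinetically in 50 mM HEPES pH 7.8, 0.5 mM EDTA, 1 mM TCEP, 0.1 mg/ml BSA, 0.01% Tween-20.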
# [11] = Confirmatory screen NINDS Rhodamine qHTS for Zika virus inhibitors (AID 1347161); conditions: purified enzyme assay, Rhodamine110 substrate fluorescence, 15 min; series mostly up to 114 µM; further: nearly all actives have a fitted effect of over 60% in size
# Outline: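 Enzyme (25 nM, linked NS2B-NS3) was preincubated 15 min with compound in 10 mM Tris-HCl pH 8.0, 0.01% Tween 20. Rhodamine110 substrate (1.5 microM) was then added and fluorescence read at start and after 15 min.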
# [12] = qHTS of pediatric cancer cell lines to identify multiple opportunities for drug repurposing: Primary screen for A673 cells (AID 1347092); conditions: A673 Ewing sarcoma viability, CellTiter-Glo ATP luminescence, 48 h; activity change, negative = cytotoxic: at 46 µM (top of the series); further: nearly all actives have a fitted effect of over 45% in size
# Outline: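 A673 cells (500-1,000 cells/well) were treated 48 hours at 37 degrees C with compounds at 11-point (0.78 nM to 46 µM) or 8-point (0.59 nM to 46 µM) dilutions. Viability read by CellTiter-Glo luminescence; concentration-response curves fitted.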
# [13] = qHTS of pediatric cancer cell lines to identify multiple opportunities for drug repurposing: Primary screen for control Hh wild type fibroblast cells (AID 1347106); conditions: Hh wild-type fibroblast viability, CellTiter-Glo luminescence, 48 h; series mostly up to 46 µM; further: nearly all actives have a fitted effect of over 55% in size;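 on activity change, negative = cytotoxic: on the % scale 0 is the no-effect control and ±100 the full control effect; a drop in luminescence marks cytotoxicity and a rise apparent proliferation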
# Outline: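 Viability after 48 h compound treatment at 37C, 500-1,000 cells/well, read as ATP luminescence with CellTiter-Glo. Primary screens used 11-point (MIPE, 0.78 nM-46 µM) or 8-point (NPC, 0.59 nM-46 µM) final concentrations; follow-up screens used 11-point dilutions.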
# [14] = qHTS of pediatric cancer cell lines to identify multiple opportunities for drug repurposing: Primary screen for BT-37 cells (AID 1347094); conditions: BT-37 viability, CellTiter-Glo luminescence, 48 h; series mostly up to 57.3 µM
# Outline: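 500-1,000 cells/well; 5 h pre-incubation 37 °C/5% CO2; compound pinned; 48 h; CellTiter-Glo, 15 min RT; luminescence. MIPE 11-pt from 0.78 nM, NPC 8-pt from 0.59 nM final. Bortezomib 2.3 µM final as positive control.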
# [15] = biological target: Cytochrome P450 3A4 (Homo sapiens) (UniProt P08684); assay: Cytochrome P450 family 3 subfamily A member 4 (CYP3A4) small molecule antagonists: luciferase qHTS assay (AID 1645841; active means well fitted curve in the direction sought with a large enough effect in the repeat runs; inconclusive means weak or mixed curves; inactive means no such curve, though single readings can be large; an effect the other way counts as inactive or inconclusive; further: nearly all actives have a fitted effect of over 45% in size); conditions: P450-Glo CYP3A4 enzyme assay, luciferin luminescence; series mostly up to 57.4 µM
# Outline: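 P450-Glo CYP3A4 enzyme with proluciferin substrate was preincubated with DMSO-dissolved compounds for 10 min at room temperature. NADPH regeneration solution started a 1 h reaction. Detection reagent stopped it, and luminescence was read after 20 min.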
# [16] = qHTS of pediatric cancer cell lines to identify multiple opportunities for drug repurposing: Confirmatory screen for NB-EBc1 cells (AID 1347115); conditions: NB-EBc1 neuroblastoma cells, viability (cytotoxicity); series mostly up to 45.9 µM;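 further: cells exposed to compound for 48 h before the viability read; nearly all actives have a fitted effect of over 45% in size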; on activity change, negative = cytotoxic: on the % scale 0 is the no-effect control and ±100 the full control effect
# Outline: (§1)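 Cells (500-1,000/well) in growth media were settled 5 h at 37 degrees C, then given compounds for 48 h. Viability was read as CellTiter-Glo luminescence. Primary runs used MIPE at 11 points (0.78 nM-46 µM) and NPC at 8 points (0.59 nM-46 µM); follow-ups used 11 points.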
# [17] = qHTS of pediatric cancer cell lines to identify multiple opportunities for drug repurposing: Confirmatory screen for BT-37 cells (AID 1347117); conditions: BT-37 pediatric cancer cells, viability; series mostly up to 45.9 µM;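 further: viability measured after 48 h of compound exposure; nearly all actives have a fitted effect of over 55% in size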;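 on activity change, negative = cytotoxic: plate controls were DMSO for no effect and bortezomib for full effect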
# Outline: as §1
# [18] = qHTS of pediatric cancer cell lines to identify multiple opportunities for drug repurposing: Confirmatory screen for U-2 OS cells (AID 1347122); conditions: U-2 OS osteosarcoma cell viability; series mostly up to 45.9 µM; further: nearly all actives have a fitted effect of over 65% in size
# Outline: as §1
# [19] = qHTS of pediatric cancer cell lines to identify multiple opportunities for drug repurposing: Confirmatory screen for Saos-2 cells (AID 1347127); conditions: Saos-2 osteosarcoma cell viability; series mostly up to 45.9 µM; further: nearly all actives have a fitted effect of over 60% in size;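 on activity change, negative = cytotoxic: plate controls were DMSO for no effect and bortezomib for full effect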
# Outline: as §1
# [20] = biological target: Peroxisome proliferator-activated receptor gamma (Homo sapiens) (UniProt P37231); assay: qHTS assay for small molecule antagonists of peroxisome proliferator-activated receptor gamma signaling (AID 588537; active means well fitted inhibition curve with a large enough effect in the signal ratio, with a control signal flat, not every such curve was filed as active; inconclusive means small, poorly fitted or top-dose-only effect, or effect the other way, or a change in a side signal; the % refers to the signal ratio;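 further: reporter cells co-stimulated with 50 nM rosiglitazone agonist during compound treatment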; on activity, negative = inhibition: % of control where 0% means no effect); conditions: HEK293 PPARg-UAS-bla, beta-lactamase ratio, antagonist mode; activity, negative = inhibition: at 76.8 µM (top of the series)
# Outline: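 We seeded GeneBLAzer HEK293 reporter cells at 3000 per well, allowed 6-6.5 h attachment at 37 C, then co-treated with test compound titrations and 50 nM rosiglitazone overnight (16 h). Inhibition was quantified from 460/530 nm emission ratios.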
# Potency means the concentration at half of the fitted maximal effect; tags describe the fitted curve by direction and shape or compound fluorescence and quenching.
# Sequence of UniProt P08684 (P08684 whole entry, looked up): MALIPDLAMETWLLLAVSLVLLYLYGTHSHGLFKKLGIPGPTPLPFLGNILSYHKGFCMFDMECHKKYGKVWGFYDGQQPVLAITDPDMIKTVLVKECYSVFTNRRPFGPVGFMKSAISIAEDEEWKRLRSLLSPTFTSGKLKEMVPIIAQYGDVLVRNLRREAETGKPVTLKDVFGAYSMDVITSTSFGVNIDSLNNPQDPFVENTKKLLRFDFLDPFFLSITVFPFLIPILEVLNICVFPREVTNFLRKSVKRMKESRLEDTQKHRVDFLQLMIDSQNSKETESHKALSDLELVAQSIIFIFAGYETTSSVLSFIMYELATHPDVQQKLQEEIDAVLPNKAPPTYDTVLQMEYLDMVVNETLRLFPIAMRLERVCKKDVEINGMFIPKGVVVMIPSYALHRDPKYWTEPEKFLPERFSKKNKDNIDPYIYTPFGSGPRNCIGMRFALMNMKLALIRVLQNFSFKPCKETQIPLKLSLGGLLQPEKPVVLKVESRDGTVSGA
# Sequence of UniProt Q07343 (Q07343 whole entry, looked up): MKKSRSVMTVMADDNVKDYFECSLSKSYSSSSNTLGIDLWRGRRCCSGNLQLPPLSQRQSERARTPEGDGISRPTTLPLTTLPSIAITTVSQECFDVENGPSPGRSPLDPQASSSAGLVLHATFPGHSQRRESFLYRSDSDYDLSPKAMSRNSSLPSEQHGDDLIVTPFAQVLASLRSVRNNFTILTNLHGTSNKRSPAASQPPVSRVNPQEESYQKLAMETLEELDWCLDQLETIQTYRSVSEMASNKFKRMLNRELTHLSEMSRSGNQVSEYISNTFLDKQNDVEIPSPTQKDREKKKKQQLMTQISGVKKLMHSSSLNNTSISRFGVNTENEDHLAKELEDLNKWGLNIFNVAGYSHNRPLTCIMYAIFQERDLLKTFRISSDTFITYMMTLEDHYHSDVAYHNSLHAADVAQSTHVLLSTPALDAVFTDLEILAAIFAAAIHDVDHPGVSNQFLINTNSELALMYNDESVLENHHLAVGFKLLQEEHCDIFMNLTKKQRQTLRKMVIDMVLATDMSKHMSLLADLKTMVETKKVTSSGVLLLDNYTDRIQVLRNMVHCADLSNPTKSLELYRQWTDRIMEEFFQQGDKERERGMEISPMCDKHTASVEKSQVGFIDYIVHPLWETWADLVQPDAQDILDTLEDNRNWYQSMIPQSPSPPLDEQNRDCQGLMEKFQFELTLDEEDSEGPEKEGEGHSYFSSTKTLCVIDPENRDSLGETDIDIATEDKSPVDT
# Sequence of UniProt O94782 (O94782 whole entry, looked up): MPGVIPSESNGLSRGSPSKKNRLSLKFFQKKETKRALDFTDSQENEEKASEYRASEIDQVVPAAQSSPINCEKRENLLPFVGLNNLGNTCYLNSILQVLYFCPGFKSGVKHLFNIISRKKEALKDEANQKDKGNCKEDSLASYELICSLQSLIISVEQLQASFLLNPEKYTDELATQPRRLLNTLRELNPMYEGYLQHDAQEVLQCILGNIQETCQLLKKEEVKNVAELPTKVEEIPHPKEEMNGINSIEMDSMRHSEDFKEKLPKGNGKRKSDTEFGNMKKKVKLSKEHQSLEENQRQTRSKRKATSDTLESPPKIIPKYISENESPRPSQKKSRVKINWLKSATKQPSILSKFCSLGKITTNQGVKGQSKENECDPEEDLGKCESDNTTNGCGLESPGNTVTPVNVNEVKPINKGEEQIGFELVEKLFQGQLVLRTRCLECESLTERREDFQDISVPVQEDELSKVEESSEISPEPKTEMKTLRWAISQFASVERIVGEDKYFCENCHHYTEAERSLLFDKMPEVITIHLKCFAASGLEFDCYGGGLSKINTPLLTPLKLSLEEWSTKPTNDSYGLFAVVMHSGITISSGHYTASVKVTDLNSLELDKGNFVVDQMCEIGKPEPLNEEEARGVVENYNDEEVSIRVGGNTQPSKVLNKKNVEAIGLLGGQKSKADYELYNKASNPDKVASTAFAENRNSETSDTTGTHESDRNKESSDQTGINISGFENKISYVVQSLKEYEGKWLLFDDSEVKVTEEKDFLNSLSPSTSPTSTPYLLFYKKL
# Sequence of UniProt P83916 (P83916 whole entry, looked up): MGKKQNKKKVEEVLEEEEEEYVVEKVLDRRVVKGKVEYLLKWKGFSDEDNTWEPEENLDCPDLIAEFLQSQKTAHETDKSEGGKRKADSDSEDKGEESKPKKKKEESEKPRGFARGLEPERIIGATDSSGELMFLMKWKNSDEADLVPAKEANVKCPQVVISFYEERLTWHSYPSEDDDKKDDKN
compound,measurement,setting,value
COC1=CC(=O)C[C@@H](C)[C@@]12Oc1c(Cl)c(OC)cc(OC)c1C2=O,Potency,[1],"inconclusive: 15.1 µM [activator, partial curve, poor fit]"
CC1CCN(C(c2ccc(F)cc2)c2ccc(C(C)C(=O)O)cc2-c2ccc(C(F)(F)F)cc2)CC1 (configuration not stated),Potency,[2],"inconclusive: 5.01 µM [inhibitor, full curve]"
same,Potency,[3],active: 0.891 µM
same,Potency,[4],active: 18.6 µM
O=[N+]([O-])c1ccc(-c2nc(-c3ccc(F)cc3)c(-c3ccncc3)[nH]2)cc1,Potency,[5],"inconclusive: 12.6 µM [cytotoxic, side channel, single point]"
same,Potency,[6],active: 12.6 µM
same,Potency,[7],"inconclusive: 0.0083 µM [activator, full curve, poor fit]"
same,Potency,[8],"inconclusive: 11.7 µM [falling, partial curve]"
same,Potency,[9],active: 31.6 µM
same,Potency,[10],"inconclusive: 50.1 µM [inhibitor, partial curve, poor fit]"
same,Potency,[11],"inconclusive: 62.2 µM [inhibitor, single point]"
O=C(Nc1ccc(Oc2ccc(Cl)cc2)c(Cl)c1)c1cc(I)cc(I)c1O,Potency,[12],"inconclusive: 26.6 µM [cytotoxic, single point]"
same,Potency,[13],inactive
same,Potency,[2],active: 11.2 µM
same,Potency,[3],"inconclusive: 63.1 µM [inhibitor, partial curve, poor fit]"
same,Potency,[4],"inconclusive: 37 µM [cytotoxic, single point]"
Nc1nc(N)c(N=O)c(OCC2CCCCC2)n1,Potency,[7],"inconclusive: 26.1 µM [falling, single point]"
same,Potency,[8],"inconclusive: 14.7 µM [falling, single point]"
same,Potency,[9],"inconclusive: 44.7 µM [inhibitor, partial curve]"
same,Potency,[14],"inconclusive: 21.7 µM [cytotoxic, partial curve]"
same,Potency,[13],"inconclusive: 18.7 µM [cytotoxic, partial curve, poor fit]"
same,Potency,[15],"inconclusive: 10.7 µM [falling, partial curve]"
CC(=O)Oc1ccc2c(c1)CC[C@@H]1[C@@H]2CC[C@]2(C)[C@@H](O)CC[C@@H]12,Potency,[12],"inconclusive: 21.1 µM [cytotoxic, single point]"
same,Potency,[14],"inconclusive: 21.9 µM [cytotoxic, partial curve, poor fit]"
same,Potency,[16],"inconclusive: 32.9 µM [cytotoxic, single point]"
same,Potency,[17],"inconclusive: 26.1 µM [cytotoxic, single point]"
same,Potency,[18],"inconclusive: 32.9 µM [cytotoxic, single point]"
same,Potency,[19],"inconclusive: 29.3 µM [cytotoxic, single point]"
C[C@]12CC[C@@H]3c4ccc(O)cc4C[C@@H](CCCCCCCCCS(=O)CCCC(F)(F)C(F)(F)F)[C@H]3[C@@H]1CC[C@@H]2O (some centres not stated),Potency,[16],inactive
same,Potency,[17],inactive
same,Potency,[18],"inconclusive: 10.4 µM [cytotoxic, partial curve]"
same,Potency,[19],inactive
same,Potency,[15],"inconclusive: 0.49 µM [falling, full curve]"
CCCOC(C(=O)OC1CCN(C)CC1)(c1ccccc1)c1ccccc1,Potency,[14],"inconclusive: 38.9 µM [cytotoxic, single point]"
Cc1ccc(OC[C@H](O)[C@H](C)NC(C)C)c2c1CCC2,Potency,[1],"inconclusive: 0.379 µM [rising, full curve, poor fit]"
same,Potency,[5],"inconclusive: 2 µM [inhibitor, partial curve, poor fit]"
same,"activity change, negative = inhibition",[6],inconclusive: -22.4% [phenotype inactive]
Cc1cc(C)c(NC(=O)N(Cc2ccc3c(c2)Cc2ccccc2-3)C2CCCCCC2)c(C)c1,Potency,[15],"inconclusive: 6.74 µM [falling, partial curve]"
CCCCN(CC)c1nc(C)nc2c1c(C)cn2-c1c(C)cc(C)cc1C,Potency,[11],"inconclusive: 12.4 µM [inhibitor, partial curve, poor fit]"
CCCCC(=O)OCC(=O)[C@H]1[C@H](C)C[C@H]2[C@@H]3C[C@H](F)C4=CC(=O)C=C[C@]4(C)[C@@]3(F)[C@@H](O)C[C@@]21C,Potency,[16],"inconclusive: 7.37 µM [cytotoxic, partial curve]"
same,Potency,[17],active: 20.8 µM
same,Potency,[18],"inconclusive: 29.3 µM [cytotoxic, single point]"
same,Potency,[19],"inconclusive: 14.7 µM [cytotoxic, partial curve, poor fit]"
CCCCCCCCCCCCOS(=O)(=O)O,Potency,[10],active: 79.4 µM
same,Potency,[20],"inconclusive: 39.8 µM [inhibitor, partial curve, poor fit]"
same,"activity, negative = inhibition",[20],inconclusive: -26.3% and inconclusive: -29.4%
O=S(=O)(c1ccccc1)N(CC(F)(F)F)c1ccc(C(O)(C(F)(F)F)C(F)(F)F)cc1,"activity, negative = inhibition",[20],inconclusive: -140%
